These results are taken from US8669255B2, “Substituted octahydropyrrolo[1,2-a]pyrazines as calcium channel blockers” (AbbVie Inc., priority 2011, dated 2014).

This assay addresses human Cav2.2 (Homo sapiens, UniProt Q00975). Briefly: In vitro assessment of calcium channel activity using FLIPR (Ca2+ influx in IMR32 cells). The format is cell-based. The conditions noted are these: IMR32 cells endogenously expressing human Cav2.2; 60 minute pre-incubation; 2 μM nifedipine; depolarized with 80 mM KCl; average of at least two runs unless marked (*). Here is the method:
(i) In Vitro Assessment of Calcium Channel Activity Using FLIPR
The IMR32 cells were maintained in MEM media containing 10% (v/v) FBS, 1% (v/v) antibiotic/antimitotic, 1% (v/v) sodium pyruvate and 1% (v/v) MEM NEAA. Following dissociation in 0.05% (v/v) trypsin/EDTA, cells were seeded into black 1×96-well plates (Corning Cellbind) at a density of 1-1.2×10^5 cells/well and incubated in the maintenance media above for 48 hours at 37° C. Immediately prior to performing the assay the media was removed and cells were loaded for 1.5 hours with 1× Calcium 4 dye prepared in HBSS (137 mM NaCl, 5.4 mM KCl, 0.25 mM Na2HPO4, 0.44 mM KH2PO4, 1.3 mM CaCl2, 1 mM MgSO4, 4.2 mM NaHCO3) containing HEPES pH 7.4 at room temperature. After dye loading and a subsequent 60 minute pre-incubation with compounds (full log dilutions from 10 μM to 0.1 nM) in the presence of 1.3 mM CaCl2 and 2 μM nifedipine to block endogenous L-type channels, the external Ca^2+concentration was increased to 5 mM CaCl2 and the cells concomitantly depolarized with 80 mM KCl to assay channel activity. To determine the IC50 values, the percent inhibition of the compound at each concentration was determined relative to the activity in the absence of inhibitor, and data was fitted using non-linear regression sigmoidal dose response curve analysis with GraphPad Prism®. Unless otherwise indicated (*), the reported values are average values from at least two runs (i.e., n≧2).
For `CC(C)(C)C(=O)N1CCN2C[C@@H](NC(=O)c3cccc(C(F)(F)F)c3)C[C@H]2C1` [Example 16, N-[(7S,8aS)-2-(2,2-dimethylpropanoyl)octahydropyrrolo[1,2-a]pyrazin-7-yl]-3-(trifluoromethyl)benzamide], the IC50 (commonly the concentration at which inhibition is half-maximal) was determined as 22.8 µM.
With `O=C(N[C@H]1C[C@H]2CN(C(c3ccccc3)c3ccccc3)CCN2C1)c1ccc(F)cc1` [Example 17, N-[(7S,8aS)-2-(diphenylmethyl)octahydropyrrolo[1,2-a]pyrazin-7-yl]-4-fluorobenzamide], the 50% inhibitory concentration (IC50) was determined as 3.47 µM.
As for `CC(C)(C)OC(=O)N1CCN2C[C@@H](Nc3cccc(C(F)(F)F)n3)C[C@H]2C1` [Example 18A, tert-butyl (7S,8aS)-7-{[6-(trifluoromethyl)pyridin-2-yl]amino}hexahydro-pyrrolo[1,2-a]pyrazine-2(1H)-carboxylate], the figure is 2.43 µM.
Turning to `CC(C)(C)OC(=O)N1CCN2C[C@@H](Nc3ccc(C(F)(F)F)cn3)C[C@H]2C1` [Example 19, tert-butyl (7S,8aS)-7-{[5-(trifluoromethyl)pyridin-2-yl]amino}hexahydro-pyrrolo[1,2-a]pyrazine-2(1H)-carboxylate], the IC50 stood at 2.97 µM.
Take `FC(F)(F)c1ccc(N[C@H]2C[C@H]3CNCCN3C2)nc1` [Example 20, (7S,8aS)-N-[5-(trifluoromethyl)pyridin-2-yl]octahydropyrrolo[1,2-a]-pyrazin-7-amine]: the half-maximal inhibitory concentration (IC50) amounted to 17.6 µM.
For the compound `CCC(CC)C(=O)N1CCN2C[C@@H](Nc3ccc(C(F)(F)F)cn3)C[C@H]2C1` [Example 21, 2-ethyl-1-[(7S,8aS)-7-{[5-(trifluoromethyl)pyridin-2-yl]amino}-hexahydropyrrolo[1,2-a]pyrazin-2(1H)-yl]butan-1-one], the IC50 is 8.98 µM.
As for `O=C(CCC(F)(F)F)N1CCN2C[C@@H](Nc3ccc(C(F)(F)F)cn3)C[C@H]2C1` [Example 22, 4,4,4-trifluoro-1-[(7S,8aS)-7-{[5-(trifluoromethyl)pyridin-2-yl]amino}-hexahydropyrrolo[1,2-a]pyrazin-2(1H)-yl]butan-1-one], the IC50 was 16.4 µM.
For the compound `O=C(CCCC(F)(F)F)N1CCN2C[C@@H](Nc3ccc(C(F)(F)F)cn3)C[C@H]2C1` [Example 23, 5,5,5-trifluoro-1-[(7S,8aS)-7-{[5-(trifluoromethyl)pyridin-2-yl]amino}-hexahydropyrrolo[1,2-a]pyrazin-2(1H)-yl]pentan-1-one], the IC50 worked out at 16.8 µM.
As for `CC(C)(C)CC(=O)N1CCN2C[C@@H](Nc3ccc(C(F)(F)F)cn3)C[C@H]2C1` [Example 24, 3,3-dimethyl-1-[(7S,8aS)-7-{[5-(trifluoromethyl)pyridin-2-yl]amino}-hexahydropyrrolo[1,2-a]pyrazin-2(1H)-yl]butan-1-one], the figure is 15.7 µM.
As to `O=C(c1ccc(Cl)cc1)N1CCN2C[C@@H](Nc3ccc(C(F)(F)F)cn3)C[C@H]2C1` [Example 25, (4-chlorophenyl)[(7S,8aS)-7-{[5-(trifluoromethyl)pyridin-2-yl]amino}-hexahydropyrrolo[1,2-a]pyrazin-2(1H)-yl]methanone], the IC50 is 4.23 µM.
Regarding `O=C(c1ccc(Cl)cc1)N1CCN2C[C@@H](Nc3cccc(C(F)(F)F)n3)C[C@H]2C1` [Example 26, (4-chlorophenyl)[(7S,8aS)-7-{[6-(trifluoromethyl)pyridin-2-yl]amino}-hexahydropyrrolo[1,2-a]pyrazin-2(1H)-yl]methanone], the IC50 came to 4.74 µM.
Under `CCC(CC)C(=O)N1CCN2C[C@@H](Nc3cccc(C(F)(F)F)n3)C[C@H]2C1` [Example 27, 2-ethyl-1-[(7S,8aS)-7-{[6-(trifluoromethyl)pyridin-2-yl]amino}hexahydro-pyrrolo[1,2-a]pyrazin-2(1H)-yl]butan-1-one] stands 9.66 µM; under `O=C(CCCC(F)(F)F)N1CCN2C[C@@H](Nc3cccc(C(F)(F)F)n3)C[C@H]2C1` [Example 28, 5,5,5-trifluoro-1-[(7S,8aS)-7-{[6-(trifluoromethyl)pyridin-2-yl]amino}-hexahydropyrrolo[1,2-a]pyrazin-2(1H)-yl]pentan-1-one], 2.81 µM.
